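96-well plates; 48 h exposure; 5 concentrations. Endpoints by linear interpolation between flanking doses. Not reached: highest tested concentration assigned. GI50: concentration for 50% inhibition of growth. Definition used: TGI = concentration required for complete inhibition of growth.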

For the assay, the system named is NCI-H322M lung. The assay can be described thus: growth of human tumour cells (NCI), 48 h.
`Cc1ncc(COP(=O)(O)O)c(/C=C2\SC(=S)NC2=O)c1O`: the TGI is greater than 100 µM.

On to `COc1ccc(Oc2ccccc2N)cc1`, for which the TGI was greater than 100 µM.

For the compound `O=C(Nc1ccccc1I(=O)=O)C1CCCCC1`, the GI50 is greater than 100 µM and the TGI was greater than 100 µM.

`COc1cc2nc(-c3cccs3)nc(Nc3cccc(Cl)c3)c2cc1OC` had a TGI greater than 100 µM.

As for `CCCOC(=O)c1c(C)n(C)c2scc[n+]12`, the GI50 was greater than 100 µM and the TGI was greater than 100 µM.

In turn, `C=C1C(C)C2C(Cc3ccccc3)NC(=O)C23OC(=O)/C=C\CC(=O)CCC(C)C/C=C/C3C1O` (stereo not given) showed a TGI of 21.6 µM.

As to `COC1=CC(=O)N(C)C(O)C1(C#N)OC1OC(CO)C(O)C(O)C1O` (stereo not given), the TGI is greater than 100 µM.

In the case of `COc1ccc2nc(C(=O)c3ccccc3)c(C)cc2c1`, the TGI is greater than 100 µM.

Take `CC(=O)OC[C@H]1On2nnnc2[C@H](OC(C)=O)[C@@H](OC(C)=O)[C@@H]1OC(C)=O`: the TGI was greater than 100 µM.

As for `Cc1ccc(-c2nc(/C=N/Nc3cc(C)nc4ccc(Cl)cc34)c(C)o2)cc1`, the GI50 was 1.73 µM and the TGI was 3.71 µM.

For the compound `COc1ccc(/C=C/c2c(C(=O)/C=C/c3ccc(C(F)(F)F)cc3)c(C)nc3ccccc23)cc1`, the GI50 is 1.54 µM and the TGI amounted to 2.92 µM.

For the compound `[N-]=[N+]=NCCCn1c2c(c3ccc([N+](=O)[O-])cc3c1=O)C(=O)c1cc(Br)ccc1-2`, the GI50 was greater than 100 µM and the TGI is greater than 100 µM.

`N#CC1=C(N)Oc2c(ccc3ccccc23)C1c1cc(=O)oc2ccc(Cl)cc12` (stereo not given): the GI50 was 4.9 µM and the TGI was greater than 100 µM.

`ClCc1ccccc1Cn1cnc2ncnc(Cl)c21`: the GI50 was 4.63 µM and the TGI was determined as 15.8 µM.

Take `NC(N)=NC1C(O)C(O)C(O)C(N=C(N)N)C1O` (stereo not given): the TGI is greater than 100 µM.

With `O=C1/C(=C/c2ccc(F)cc2)CN(C(=O)CCN2CCC(=NO)CC2)C/C1=C\c1ccc(F)cc1`, the GI50 was 2.92 µM and the TGI came out at 5.7 µM.

As to `CC/C(Cc1ccccc1)=C(\c1ccc(OCCN2CCCC2)cc1)c1ccc(OC(=O)NCc2ccccc2)cc1`, the GI50 was 1.91 µM and the TGI was 3.97 µM.

`COc1cc(N(CCC#N)CCC#N)ccc1/C=N\NC(=O)c1ccc(C)cc1` returned a TGI greater than 100 µM.

`CC1=CCC[C@H]2[C@](C)(CC3=CC(=O)C(SCC(C)C)=CC3=O)[C@@H](C)CC[C@]12C`: the TGI was determined as 32 µM.

`CC(C)Oc1cccc(N2C(Nc3ccccc3)=Nc3ccncc3S2(=O)=O)c1` came in with a TGI greater than 100 µM.

Take `CNCCCNc1nc2ccccc2c2c(=O)c3cc(OC)ccc3sc12`: the GI50 was 1.74 µM and the TGI came to 3.37 µM.

Regarding `CC1OC(=O)C(O)=C1O` (stereo not given), the TGI is greater than 100 µM.

The compound `O=C(O)/C=C\C(=O)Nn1c(Cc2ccc(Cl)cc2)n[nH]c1=O` gave a TGI greater than 100 µM.

In turn, `COc1ccc(C2=Nc3ccccc3SC(C)C2)cc1OC` (stereo not given) showed a TGI of 79.9 µM.

Consider `Cc1c2cccc-2ccc2c3ccccc3n(C(=O)c3ccc(Cl)cc3)c12`, for which the TGI was greater than 100 µM.

With `CC(=O)OC12C=C(C)C(C(C)C1)C1C(=O)N(CCN3CCCCC3)C(=O)C12` (stereo not given), the GI50 was greater than 50 µM and the TGI is greater than 50 µM.

With `O=C(/C=C/C=C/c1ccccc1)c1ccco1`, the GI50 is 19.6 µM and the TGI is 58.8 µM.

Consider `Nc1c(S(=O)(=O)O)cc(S(=O)(=O)O)c2ccc(N=Nc3ccc(/C=C/c4ccc(N=Nc5ccc6c(S(=O)(=O)O)cc(S(=O)(=O)O)c(N)c6c5O)cc4S(=O)(=O)O)c(S(=O)(=O)O)c3)c(O)c12`, for which the TGI was greater than 100 µM.

`CC1(C)O[C@@H](C[C@]2(C#N)C[C@H](CCl)OC(C)(C)O2)C[C@@H](C#N)O1` yielded a TGI greater than 100 µM.

`COc1ccccc1NC(=O)CC(=O)NN` registered a TGI greater than 100 µM.

For the compound `CC(C)(C)OC(=O)c1ccc(NCC2=C(Br)C(=O)C=CC2=O)cc1`, the TGI is greater than 100 µM.

Regarding `Cn1c(=O)sc2cc(C(=S)N3CCCCC3)ccc21`, the TGI is greater than 100 µM.

As for `NCCSCCC(=O)O`, the TGI was greater than 100 µM.

The values are drawn from PubChem BioAssay (NCI).
